Measurements: PubChem BioAssay (NCATS)
Inconclusive results, whose numbers are uncertain, are shown with a selection of clear calls. A potency beside an inconclusive call is a rough fit, not a confirmed value. Calls of active or inactive are those of the source. Calls come from the whole dose curve; as a rule, active = well fitted cell-killing curve with a large enough effect; inconclusive = small, poorly fitted or top-dose-only effect, or effect the other way; inactive = no such curve, though single readings can be large or run the other way.

Columns and labels:
[1] = Viability qHTS for spleen associated tyrosine kinase inhibitor (SYKi) naive MV4-11 cells (AID 1963823); settings: MV4-11 AML viability, CellTiter-Glo luminescence, 72 h; series mostly up to 45 µM; note: nearly all actives have a fitted effect of over 40% in size
How it was run: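 SYKi-naive MV4-11 AML cells, 500 per well, were exposed to library compounds for 72 hr at 37 C, 5% CO2. Viability was then read by CellTiter-Glo luminescence after 10 min at room temperature.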

[2] = Viability qHTS for spleen associated tyrosine kinase inhibitor (SYKi) drug resistant MV4-11 cells (AID 1963824); note: nearly all actives have a fitted effect of over 35% in size
How it was run: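 CellTiter-Glo luminescence, read 10 min after reagent addition, reports viability after a 72 hr compound exposure. Cells are an MV4-11 line made resistant to SYK inhibition, seeded at 500 per well onto compound-containing plates.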
Potency is the fitted concentration of half-maximal effect; tags give direction and shape of the fitted curve.

Structure (SMILES)	Potency [1]	Potency [2]
COc1cc(C(=O)NCC2(N(C)C)CCCC2)cc(OC)c1OCc1ccccc1	inconclusive: 8.2 µM [cytotoxic, partial curve]	inconclusive: 20.6 µM [cytotoxic, single point]
O=C1CCC=CC1(O)C(=O)OCc1ccccc1O[C@@H]1O[C@H](CO)[C@@H](O)[C@H](O)[C@H]1O (stereo partly specified)	inconclusive: 7.96 µM [cytotoxic, single point]	inconclusive: 3.17 µM [cytotoxic, partial curve]
C/C(=C\CCC(C(=O)O)C1CCC2(C)C3=C(CCC12C)C1(C)CCC(=O)C(C)(C)C1CC3)C(=O)O (stereo unspecified)	inconclusive: 8.93 µM [cytotoxic, single point]	inconclusive: 7.96 µM [cytotoxic, partial curve]
CC(C)(O)C(=O)N1CCN(c2ccc(C(F)(F)F)c(C3=C(c4c[nH]c5ccccc45)C(=O)NC3=O)c2)CC1	inconclusive: 0.291 µM [cytotoxic, full curve]	active: 0.366 µM
Nc1nc2c(ncn2C2OC3COP(=O)(O)OC3C2O)c(=O)[nH]1 (stereo unspecified)	inconclusive: 23.1 µM [cytotoxic, single point]	inconclusive: 1.3 µM [rising, partial curve, poor fit]
Cc1c(N(C)CS(=O)(=O)O)c(=O)n(-c2ccccc2)n1C	inconclusive: 15 µM [cytotoxic, partial curve]	inconclusive: 26.6 µM [cytotoxic, single point]
C=C1C(=O)OC2CC(C)=C(C(C)CCCO)C(O)C12 (stereo unspecified)	inactive	inconclusive: 20.6 µM [cytotoxic, partial curve]
Cc1nc(C)c2c(n1)N(Cc1ccc(-c3ccccc3-c3nn[nH]n3)cc1)C(=O)CC2	inconclusive: 23.1 µM [cytotoxic, partial curve, poor fit]	inconclusive: 29.1 µM [cytotoxic, partial curve, poor fit]
COc1ccc(NC(=O)C2C[C@H](C)CC[C@H]2C(C)C)cc1 (stereo partly specified)	inactive	inconclusive: 9.2 µM [cytotoxic, partial curve]
CC(=O)O[C@H]1CC(C)(C)CC2[C@]13CO[C@@]21CCC2[C@@]4(C)CC[C@H](O[C@@H]5OC[C@H](O[C@@H]6O[C@H](CO)[C@@H](O)[C@H](O)[C@H]6O[C@@H]6OC[C@@H](O)[C@H](O)[C@H]6O)[C@H](O)[C@H]5O[C@@H]5O[C@H](CO)[C@@H](O)[C@H](O)[C@H]5O)[C@@](C)(CO)C4CC[C@@]2(C)[C@]1(C)C[C@H]3O (stereo partly specified)	inconclusive: 4.37 µM [cytotoxic, single point]	inconclusive: 4.91 µM [cytotoxic, partial curve]
O=C(Nc1nc2ccccc2n1CCc1ccccc1)c1ccccc1	inactive	inactive
Cc1onc(-c2ccccc2)c1C(=O)N1CCN(c2ccc([N+](=O)[O-])cc2Cl)CC1	inconclusive: 20.6 µM [cytotoxic, partial curve]	active: 13 µM
CCOc1ccc(S(=O)(=O)n2c(C)nc3ccccc32)cc1	inconclusive: 5.02 µM [cytotoxic, partial curve, poor fit]	inconclusive: 8.93 µM [cytotoxic, partial curve]
CN1CCc2cc(Cl)c(O)cc2[C@@H](c2cccc3c2OCC3)C1	inconclusive: 14.6 µM [cytotoxic, partial curve, poor fit]	active: 11.6 µM
COC(=O)C1=COC(O[C@@H]2O[C@H](CO)[C@@H](O)[C@H](O)[C@H]2O)[C@H]2[C@@H]1[C@H](OC(=O)CCc1ccc(O)cc1)C[C@]2(C)O (stereo partly specified)	inconclusive: 11.2 µM [cytotoxic, single point]	inactive
CC1(C(=O)O)CCCC2(C)C3CC4C5CC3(CCC12)CC45C (stereo unspecified)	inconclusive: 29.1 µM [cytotoxic, single point]	inconclusive: 13 µM [cytotoxic, partial curve]
C=CCc1ccc(OC(C)Cc2ccc(OC)c(OC)c2)c(OC)c1 (stereo unspecified)	inconclusive: 9.04 µM [cytotoxic, partial curve]	active: 12.8 µM
COc1cc2c(cc1O)C(c1ccc(O)cc1)C(C)C(C)C2 (stereo unspecified)	inconclusive: 29.1 µM [cytotoxic, single point]	inconclusive: 20.6 µM [cytotoxic, partial curve]
